PubChem BioAssay AID1159614 (National Center for Advancing Translational Sciences (NCATS), 2016)
Hit rate of the full screen: of about 45,000 compounds, about 65 (0.1%) were called active. Calls follow the shape of the dose curve; as a rule, active = well fitted activation curve with a large enough effect; inconclusive = small, poorly fitted or top-dose-only effect; inactive = no such curve, though single readings can be large or run the other way. Some of the results follow.

The compounds below were run against Galactocerebrosidase (Homo sapiens) (UniProt P54803) (assay: A Novel Cell-Based Assay to Identify Small Molecules for B -Galactocerebrosidase). Conditions: 145M-Twi-hGALC-G270D cells (Twitcher mouse brain line with human GALC G270D), HMU-beta-Gal fluorescence, 48 h; series mostly up to 57.5 µM; activation: at the top concentration.
Method in brief: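 Fluorescence readout: HMU-β-gal cleavage by mutant GALC (0.1 mM final, citrate/phosphate pH 5.2 with 1 mg/mL taurocholate), stopped with carbonate/bicarbonate plus Triton X-100. Cells: murine Twitcher 145M-Twi expressing human G270D GALC; qHTS for activators.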
Also: 0% is about no effect; nearly all actives have a fitted effect of over 65% in size.

Chain of UniProt P54803 (P54803 whole entry, looked up): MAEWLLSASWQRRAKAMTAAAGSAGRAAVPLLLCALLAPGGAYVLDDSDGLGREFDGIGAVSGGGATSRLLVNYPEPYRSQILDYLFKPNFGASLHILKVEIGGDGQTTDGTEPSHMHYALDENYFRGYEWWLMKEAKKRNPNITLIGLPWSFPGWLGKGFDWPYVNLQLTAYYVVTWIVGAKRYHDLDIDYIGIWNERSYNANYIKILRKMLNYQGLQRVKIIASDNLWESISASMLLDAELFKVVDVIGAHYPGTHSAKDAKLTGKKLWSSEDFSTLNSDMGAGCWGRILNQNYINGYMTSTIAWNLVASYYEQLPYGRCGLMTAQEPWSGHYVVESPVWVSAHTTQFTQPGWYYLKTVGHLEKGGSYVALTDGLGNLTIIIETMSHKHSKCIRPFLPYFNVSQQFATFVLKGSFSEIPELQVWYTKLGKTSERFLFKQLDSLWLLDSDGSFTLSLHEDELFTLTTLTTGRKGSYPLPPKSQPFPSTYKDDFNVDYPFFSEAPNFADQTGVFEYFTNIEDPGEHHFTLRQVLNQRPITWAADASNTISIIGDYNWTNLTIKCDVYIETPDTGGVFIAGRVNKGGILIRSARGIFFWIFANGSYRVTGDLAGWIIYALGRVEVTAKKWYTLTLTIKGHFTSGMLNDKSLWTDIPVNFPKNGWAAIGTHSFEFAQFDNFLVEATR

activation, inactive:
COc1cc(NC(=O)CCN2CCN(CCO)CC2)cc(OC)c1 -14.5%
CCOc1ccc(OCC(=O)Nc2ccc(S(=O)(=O)Nc3cc(C)on3)cc2)cc1 -2.79%
COc1cc(CN(C(=O)COc2ccc(F)cc2)c2ccccn2)cc(OC)c1OC -32.7%
CCOC(=O)COc1ccc(-c2nnn(CC(=O)Nc3ccccc3)n2)cc1 -9.53%
Cn1c(=O)c2sccc2n2c(CCCC(=O)Nc3ccc(Oc4ccccc4)cc3)nnc12 -0.507%
Cc1ccc(NC(=O)c2ccc(=O)n(CC(=O)Nc3ccccc3)n2)cc1 0.294%
COc1ccc(N2CCN(S(=O)(=O)c3ccc4c(c3)C(C(C)C)C(=O)N4)CC2)cc1 (configuration not stated) -8.68%
Cn1c(/C(C#N)=C/c2ccccc2Br)nc2ccccc21 -9.7%
CCn1c(CNC(=O)c2ccc(OC)cc2)nnc1SCC(=O)Nc1cc(C)ccc1C -20.8%
Cc1ccc(C)c(NC(=O)C2CCN(S(=O)(=O)c3c(C)noc3/C=C/c3cccs3)CC2)c1 -5.79%
Cc1sc2c(c1C)c(=O)n(CCc1ccccc1)c(=O)n2Cc1ccc(C(C)(C)C)cc1 -8.65%
CCOCN(C(=O)Cn1c(COC)nc2ccccc21)c1c(C)cccc1CC -8.07%
COc1ccc(Cl)cc1NC(=O)CSc1nccn1-c1ccc(Cl)cc1 -13.1%
COc1ccc(S(=O)(=O)N2Cc3ccccc3CC2C(=O)Nc2cc(Cl)ccc2Cl)cc1 (configuration not stated) -1.84%
CCc1cccc(NS(=O)(=O)c2ccc3c(c2)CC(C)N3C(=O)C2CC2)c1 (configuration not stated) -16.8%
COc1ccccc1C(=O)NCc1nc2cccnc2n1Cc1ccc(F)cc1 -9.19%
Cc1cccc(NC(=O)CSC2=Nc3ccccc3C3=NC(CC(=O)NCc4cccs4)C(=O)N23)c1 (configuration not stated) -20.6%
COc1cccc(CNC(=O)C2CCCN(S(=O)(=O)N(C)c3ccc(F)cc3)C2)c1OC (configuration not stated) -6.71%
COc1ccc(C(=O)NCCn2cc(SCc3ccc(C(F)(F)F)cc3)c3ccccc32)cc1OC -22.7%
O=C(Nc1ccc(Oc2ccc(Cl)cc2)c(Cl)c1)c1cc(I)cc(I)c1O -10.5%
COCCn1c(C)cc(O)c(C(c2ccccc2OC)N2CCN(c3ccccc3)CC2)c1=O (configuration not stated) 0.874%
COc1ccc(CNC(=O)CCCn2nc(C)n3c(cc4sccc43)c2=O)cc1 -5.89%
COc1ccccc1/C=C/c1nc(C#N)c(NC2CCCCC2)o1 -11.9%
COc1ccc(C(=O)c2cn(Cc3ccccc3F)c3cc4c(cc3c2=O)OCCO4)cc1OC -8.11%
O=C(Nc1ccc2c(c1)CCCN2C(=O)c1cccs1)c1ccc(F)c(F)c1 -21.5%
COc1ccc(-c2noc(CC(=O)N(C)c3cccc(C)c3)n2)cc1 -17.5%
CCOC(=O)COc1ccc(CC)cc1C(=O)c1ccn2nc(-c3ccc(F)cc3)cc2n1 -10%
